Several values for one entry are separate records, joined by “and”; a condition that tells them apart may be missing. Equal entries are not always repeated. About 120 (0.25%) of roughly 48,000 compounds were called active. Not shown: some 4% with an inconclusive outcome. Calls come from the whole dose curve; as a rule, active = well fitted activation curve with a large enough effect; inconclusive = small, poorly fitted or top-dose-only effect, or another doubt; inactive = no such curve, though single readings can be large or run the other way. The list shows a part of the results.
Assay: Primary qHTS for Identification of Small Molecule Activators of Huntingtin-Antisense Promoter Activity; note: nearly all actives have a fitted effect of over 55% in size
Conditions: HEK293 HTT-AS promoter firefly luciferase reporter, 24 h; at 57.5 µM (top of the series) unless noted
Procedure, shortened: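 Quantitative HTS used concentration series of up to 57.5 uM final on HEK293 luciferase reporter cells, 24 h at 37 degrees C. Readout was Dual-Glo firefly luminescence.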

SMILES | activity change, positive = activation
NP(N)(=O)NC(=O)c1ccc(F)cc1 | inactive: 2.15%
O=c1c2ccccc2nc(/C=C/c2cccc3ccccc23)n1-c1ccccc1Cl | inactive: -10.6%
CC[n+]1c(-c2ccccc2)c2cc(N)ccc2c2ccc(N)cc21 | inactive: -37.8%
COc1ccc(Cl)cc1NC(=O)CN1C(=O)CN=C(c2ccccc2)c2cc(Cl)ccc21 | inactive: -44.1%
Cc1ccc(-n2c(/C=C/c3ccc(Br)s3)nc3ccccc3c2=O)cc1 | inactive: -28.5%
CCCCC1C(=O)NC(=O)N(C2CCCCC2)C1=O (stereo not given) | inactive: -10.2%
Cc1cccc(-n2c(/C=C/c3ccccc3O)nc3ccccc3c2=O)c1 | inactive: -38%
CCc1ccc(NC(=O)c2cccn(Cc3cccc([N+](=O)[O-])c3)c2=O)cc1 | inactive: -16.3%
Cc1[nH]nc2ccc(-c3cncc(OC[C@@H](N)Cc4c[nH]c5ccccc45)c3)cc12 | inactive: -43%
CO[C@H]1CCC(O[C@H]2C[C@H]([C@]3(C)CC[C@]4(C[C@H](O)[C@@H](C)[C@@H]([C@@H](C)C=C(C)C(=O)[C@H](C)C[C@H](C)C(=O)O)O4)O3)O[C@]3(O[C@@H]([C@H]4O[C@@](O)(CO)[C@H](C)C[C@H]4C)C[C@H]3C)[C@H]2C)O[C@H]1C (stereo not given in full) | inactive: -29.1%
O=c1c2ccccc2nc(/C=C\c2ccccc2F)n1-c1ccc(O)cc1 | inactive: -8.04% [at 57.5 µM, percent change from vehicle, -100% = no light]
C[C@]12CC[C@H]3[C@@H](CCC4=CC(=O)CC[C@@]43C)[C@@H]1CC[C@@H]2C(=O)O | inactive: -1.46%
Cc1c(C(c2ccc(Cl)cc2Cl)c2c(O)c3ccccc3oc2=O)c(=O)n(-c2ccccc2)n1C (stereo not given) | inactive: -27.5%
CCCCc1ccc(NC(=O)c2cccn(Cc3ccc(Cl)cc3)c2=O)cc1 | inactive: -50.4%
COc1ccc(C(CN(C)C)C2(O)CCCCC2)cc1 (stereo not given) | inactive: 1.19% and inactive: -25.3%
Cc1ccc(OCC(=O)N2CCN(CCc3ccncc3)CC2)cc1C | inactive: 0.548%
COc1ccc(C(=O)Nc2ccc(Cl)cc2C(=O)c2ccccc2)c(OC)c1 | inactive: -53.2% [at 57.5 µM, percent change from vehicle, -100% = no light]
Cc1ccccc1CN1C(=O)CN=C(c2ccccc2)c2cc(Cl)ccc21 | inactive: -44.8%
Cc1ccc(-n2c(/C=C/c3cc(Br)cs3)nc3ccccc3c2=O)cc1 | inactive: -15.1%
O=C(Oc1ccc([N+](=O)[O-])cc1)N1CCN(Cc2cccc(Oc3ccccc3)c2)CC1 | inactive: -41.5%
CC(C)(C)OC(=O)c1ncn2c1[C@@H]1CCCN1C(=O)c1c(Br)cccc1-2 | inactive: -5.14%
Cc1cc(-n2c(/C=C/c3ccc(Br)s3)nc3ccccc3c2=O)ccc1Br | inactive: -41.4%
CCN(CC)CCOC(=O)C(O)(c1ccccc1)c1ccccc1 | inactive: -7.78%

SMILES | activity change, positive = activation
Cc1cc(-n2c(/C=C/c3cccs3)nc3ccccc3c2=O)ccc1Br | inactive: -16.7% [at 57.5 µM, percent change from vehicle, -100% = no light]
CCC(=O)O[C@@H]1C=C2CCC3C(CCC4(C)C3CC[C@@H]4OC(=O)CC)C2CC1 (stereo not given in full) | inactive: -0.473%
C[C@H]1CNCCc2ccc(Cl)cc21 | inactive: -7.37%
C[C@]12C/C(=C/O)C(=O)C[C@@H]1CC[C@@H]1[C@@H]2CC[C@@]2(C)[C@H]1CC[C@]2(C)O | inactive: -13.9%
Cc1ccc(Cn2cccc(C(=O)Nc3ccc4c(c3)OCO4)c2=O)cc1 | inactive: -4.51% [at 57.5 µM, percent change from vehicle, -100% = no light]
CC1=NN=C(c2ccc(N)cc2)c2cc3c(cc2C1)OCO3 | inactive: -5.56%
C=C1C[C@@H]2[C@H](CC[C@]3(C)C(=O)CC[C@@H]23)[C@@]2(C)C=CC(=O)C=C12 | inactive: -3.74%
CNC(C)Cc1ccccc1OC (stereo not given) | inactive: -17.2%
COc1cccc(NC(=O)Cn2cc(C(=O)c3ccccc3)c3ccccc32)c1 | inactive: -36%
CCCOc1ccc(C2SCC(=O)Nc3c2c(C)nn3-c2cccc(C)c2)cc1OC (stereo not given) | inactive: -28.4%
COc1ccccc1N1CCNCC1 | inactive: -7.65%
Cc1cccc(Cn2cccc(C(=O)Nc3ccc4c(c3)OCCO4)c2=O)c1 | inactive: -7.35%
CC(=O)[C@H]1CC[C@H]2[C@@H]3CC[C@H]4C[C@H](O)CC[C@]4(C)[C@H]3C(=O)C[C@]12C | inactive: -10.5%
CCN(CC)CCSc1nc2ccccc2c(=O)n1-c1ccc(Cl)cc1 | inactive: -9.27% [at 57.5 µM, percent change from vehicle, -100% = no light]
CCOc1ccc(NC(=O)Cn2cc(C(=O)c3ccccc3)c3ccccc32)cc1 | inactive: -19.3%
COc1ccc(C)cc1NC(=O)N(Cc1ccc2c(c1)OCO2)C1CCN(Cc2ccccc2)CC1 | inactive: -29.5%
CC(=O)O[C@@]12CO[C@H]1C[C@H](O)[C@@]1(C)C(=O)[C@H](O)C3=C(C)[C@@H](O)C[C@@](O)([C@@H](OC(=O)c4ccccc4)[C@@H]21)C3(C)C | inactive: -16.2%
Cc1cccc(-c2nc(CN3C(=O)CN=C(c4ccccc4)c4ccccc43)c(C)o2)c1 | inactive: -45%
CCOC(=O)NC(O)C(Cl)(Cl)Cl (stereo not given) | inactive: -3.19%
COc1ccc(C(c2ccc(OC)cc2)C(Cl)(Cl)Cl)cc1 | inactive: -8.88% [at 116 µM, percent change from vehicle, -100% = no light]
Cc1ccc(-n2c(/C=C\c3ccc(F)cc3)nc3ccccc3c2=O)cc1Cl | inactive: 12.1% [at 57.5 µM, percent change from vehicle, -100% = no light]
CCOC(=O)C(c1c(O)c2ccccc2oc1=O)c1c(O)c2ccccc2oc1=O | inactive: -21.1% [at 57.5 µM, percent change from vehicle, -100% = no light]
